The results in this text go back to patent CN116615457A (ICONOSCO S A, dated 2023).

Substitutions are numbered along the chain they refer to.

In assay [1] the target is T1, 重组人IL-1RAP-ECD(S21-E359)-avi-his蛋白 (human, UniProt Q9NPH3 21-359, biotinylated in the BLI binning assay).
T1 construct: also called 人IL-1RAP-ECD-Avi-His; 重组人IL-1RAP-avi-his蛋白
T1 sequence: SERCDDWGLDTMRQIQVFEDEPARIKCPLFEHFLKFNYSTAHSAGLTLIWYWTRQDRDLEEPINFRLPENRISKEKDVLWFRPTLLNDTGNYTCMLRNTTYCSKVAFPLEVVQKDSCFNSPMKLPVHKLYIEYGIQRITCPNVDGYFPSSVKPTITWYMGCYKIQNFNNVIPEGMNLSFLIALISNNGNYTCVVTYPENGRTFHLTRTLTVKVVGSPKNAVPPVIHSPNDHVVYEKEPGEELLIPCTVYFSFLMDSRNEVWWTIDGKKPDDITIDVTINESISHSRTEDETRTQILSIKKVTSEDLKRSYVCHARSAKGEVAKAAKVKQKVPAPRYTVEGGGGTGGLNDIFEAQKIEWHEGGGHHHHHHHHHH
Briefly: SPR; IgG1 LALA captured on anti-human IgG Fc chip, human IL-1RAP-avi-his as analyte.

For assay [2], the target named is T2, 重组食蟹猴IL-1RAP-ECD(S21-E359)-avi-his蛋白 (cynomolgus monkey, UniProt P59822 21-359 (rhesus entry), biotinylated in the Fab SPR assay).
T2 construct: also called 食蟹猴IL-1RAP-ECD-Avi-His; 重组食蟹猴IL-1RAP-avi-his蛋白
T2 sequence: T1 sequence with L183F, T273P, K326T
Briefly: SPR; IgG1 LALA captured on anti-human IgG Fc chip, cynomolgus IL-1RAP-avi-his as analyte. (In SPR one partner is held on a chip, and binding of the other changes the refractive index at the surface.)

B1: 抗IL1-RAP-C8-RecC-ES-IgG1-LALA (antibody)
heavy: QVQLVQSGAEVKKPGSSVKVSCKASGSPAEPYAIQWVRQAPGQGLEWMGYIIPSLGGYDYAQKFQGRVTITADESTSTAYMELSSLRSEDTAVYYCARGQTLYESGRQFDIWGQGTLVTVSS[skipping human IgG1 constant region with changes]
light: EIVMTQSPATLSVSPGERATLSCRASQSVSSNLAWYQQKPGQAPRLLIYGASTRATGIPARFSGSGSGTEFTLTISSLQSEDFAVYYCQQYNNWPWTFGQGTKVEIKRTVAAPSVFIFPPSDEQLKSGTASVVCLLNNFYPREAKVQWKVDNALQSGNSQESVTEQDSKDSTYSLSSTLTLSKADYEKHKVYACEVTHQGLSSPVTKSFNRGEC
notes: D100/S100a (Kabat) of C8-RecC CDR-H3 replaced by ES
As for B1, the binding result in assay [1] and in assay [2] was “binds” in each case.
